Measurements as given in the RNAGym collection of RNA variant scans (doi:10.1093/nar/gkz1192).
The source gives no read counts; variants with many changes may rest on few reads.

B1: CPEB3 Ribozyme (parent)
chain: UAACAGGGGGCCACAGCAGAAGCGUUCACGUCGCAGCCCCUGUCAGAUUCUGGUGAAUCUGCGAAUUCUGCUGUAUAUCUC

Variants of: B1
Test: self-cleavage, relative activity (ratio to wild type); higher = more cleavage; in vitro, sequencing
Outline: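 Barcoded CPEB3 ribozyme mutants, produced by rounds of error-prone PCR, self-cleaved while being transcribed with T7 RNA polymerase for 5 hours at 37°C and during a subsequent 15 min DNase I step before EDTA was added. Sequencing of template-switched cDNA on Illumina gave cleaved and total reads, and DNA sequencing assigned barcodes to variants. Each variant's relative activity is its cleaved/total read fraction divided by the unmutated ribozyme's fraction, averaged across three batches. A variant needed a minimum of 5 reads.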

Row | Variant | self-cleavage
1 | UAACAGGGGGCCACAGCAGAAGCGUUCACGUCGCAGCCCCUGUCGGAUUCUGGUGUAUCCGCGAAUUCUGCUGUAUAUCCC [A45G A56U U60C U80C] | 1.16
2 | UAACAGGGGGCCACAGCAGAAGCGUUCACGUCGCAGCCCCUGCCAGAUUCUGGUGAAUCAGCGAAUUCCGGUGUAUAUCUC [U43C U60A U69C C71G] | 0.13
3 | UAACAGGGGGCCACAGCAGAAGCGUUCACGUCGCAGCCCCUGUCGGUUUCCGGUGAAUCUGCGAGUUCUGCUGUGUAUCUC [A45G A47U U51C A65G A75G] | 0.13
4 | UAACAGGGGGCCACAGCAGAAGCGUUCACGUCGCAGCCCCUGUCCGAUACUGGUGAAUCUGCGAAUCCUGCUGUAUAUCUC [A45C U49A U67C] | 0.44
5 | UAACAGGGGGCCACAGCAGAAGCGUUCACGUCGCAGCCCCUGGCAGAUACUGGUGAAUCUGCGAAUUCUGCUGUAUGUCUC [U43G U49A A77G] | 0.36
6 | UAACAGGGGGCCACAGCAGAAGCGUUCACGUCGCAGCCCCUGUCGGAUUCAGGUAAAUCUGCAAAUUCUGCUGUAUAUCUC [A45G U51A G55A G63A] | 0.53
7 | UAACAGGGGGCCACAGCAGAAGCGUUCACGUCGCAGCCCCUGGCAGAUUCUGAUGAAUCUGCGAACUCUGCUGUAUAUCUC [U43G G53A U66C] | 0.18
8 | UAACAGGGGGCCACAGCAGAAGCGUUCACGUCGCAGCCCCUGUCGGAUUCUGGUGAGUCUGCGAAUUCCGCUGUAUAUCUC [A45G A57G U69C] | 0.42
9 | UAACAGGGGGCCACAGCAGAAGCGUUCACGUCGCAGCCCCUGUAAGAUUCUGGUGAGUCUGCGAAUUCUGCUGUAUACCUC [C44A A57G U78C] | 0.23
10 | UAACAGGGGGCCACAGCAGAAGCGUUCACGUCGCAGCCCCUGUCCGAUUCUGGUGAAUCUGCGAAUCCCGCUGUAUAUCUC [A45C U67C U69C] | 0.54
11 | UAACAGGGGGCCACAGCAGAAGCGUUCACGUCGCAGCCCCUGUCGGAAUCUGGUGAGUUCGCGAAUUCUGCCGUAUAUCUC [A45G U48A A57G C59U U60C U72C] | 0.11
12 | UAACAGGGGGCCACAGCAGAAGCGUUCACGUCGCAGCCCCUGUCGGACUCUGGUGAAUCUGCGAAUUCUGCUGUAAAUCUC [A45G U48C U76A] | 0.17
13 | UAACAGGGGGCCACAGCAGAAGCGUUCACGUCGCAGCCCCUGUCGGAUUCUGGUGAAUCUGCGAAUUCUACUGUAUACCUC [A45G G70A U78C] | 0.54
14 | UAACAGGGGGCCACAGCAGAAGCGUUCACGUCGCAGCCCCUGCCAGAUUCUGGUGAAUCAGCGGAUUCUGCUGUAUAUCUC [U43C U60A A64G] | 0.35
15 | UAACAGGGGGCCACAGCAGAAGCGUUCACGUCGCAGCCCCUGUCGGAUUCUUGUGAAUCUGCGAAUUCUGCCGUAUAUCCC [A45G G52U U72C U80C] | 1.22
16 | UAACAGGGGGCCACAGCAGAAGCGUUCACGUCGCAGCCCCUGUCCGAUUCUGGUGAAUCCGCGGAUUCUGCUGUAUAUCUC [A45C U60C A64G] | 0.19
17 | UAACAGGGGGCCACAGCAGAAGCGUUCACGUCGCAGCCCCUGUUAGAUUCUGGUGAAUCUGCGAGUUCUGCUGUAUACCUC [C44U A65G U78C] | 0.16

Row | Variant | self-cleavage
18 | UAACAGGGGGCCACAGCAGAAGCGUUCACGUCGCAGCCCCUGUCGGAAUCUGGUGAAUCUGCGAAUUCUGCUGUAAAUCUC [A45G U48A U76A] | 0.14
19 | UAACAGGGGGCCACAGCAGAAGCGUUCACGUCGCAGCCCCUGUCGGAUGCUGGUAAAUCCGCGAAUUCUGCUGUAUAUCUC [A45G U49G G55A U60C] | 0.83
20 | UAACAGGGGGCCACAGCAGAAGCGUUCACGUCGCAGCCCCUGUCGGAUCCUGGUGAACCUGCGAAUUCUGCUGUAUAUCUC [A45G U49C U58C] | 0.07
21 | UAACAGGGGGCCACAGCAGAAGCGUUCACGUCGCAGCCCCUGUUAGAUUCUGGUAAACCUGCGAAUUCUGCGGUUUACCUC [C44U G55A U58C U72G A75U U78C] | 0.11
22 | UAACAGGGGGCCACAGCAGAAGCGUUCACGUCGCAGCCCCUGUAAGAUCCUGGAGAAUCUGCGAAUUCUGCCGUAUAUCUC [C44A U49C U54A U72C] | 0.18
23 | UAACAGGGGGCCACAGCAGAAGCGUUCACGUCGCAGCCCCUGUCCGAUUCUGGUGAGUCUGCGAAUUCCGCUGUAUAUCUC [A45C A57G U69C] | 0.17
24 | UAACAGGGGGCCACAGCAGAAGCGUUCACGUCGCAGCCCCUGGCAGAUUCUGGUGAAUCUGCGUAUCCUGCUGUAUAUCUC [U43G A64U U67C] | 0.16
25 | UAACAGGGGGCCACAGCAGAAGCGUUCACGUCGCAGCCCCUGUCGGGUUCAGGUGAAUCUGCGAAUUCUGCUGUAUAUCUC [A45G A47G U51A] | 1.01
26 | UAACAGGGGGCCACAGCAGAAGCGUUCACGUCGCAGCCCCUGCCAGAUUCUGGUGAAUCUGCGAAUGCUGCUGCAUAUCUC [U43C U67G U74C] | 0.26
27 | UAACAGGGGGCCACAGCAGAAGCGUUCACGUCGCAGCCCCUGCCAGAUUCUGGUGAAUCCGCGAAUUCUGCUGUAUACCUC [U43C U60C U78C] | 0.18
28 | UAACAGGGGGCCACAGCAGAAGCGUUCACGUCGCAGCCCCUGCCAGAUUCUGGGGAAUCUGCGAAUUCUGCUGUAUAACUC [U43C U54G U78A] | 0.63
29 | UAACAGGGGGCCACAGCAGAAGCGUUCACGUCGCAGCCCCUGCCAGAUUCUGGUGAAUCGGCGAGUUCUGCUGUAUAACUC [U43C U60G A65G U78A] | 0.1
30 | UAACAGGGGGCCACAGCAGAAGCGUUCACGUCGCAGCCCCUGUCGGGUUCUGGUGCGUCUGCGAAUUCUGCUGUACAUCUC [A45G A47G A56C A57G U76C] | 0.08
31 | UAACAGGGGGCCACAGCAGAAGCGUUCACGUCGCAGCCCCUGUCGGAUCCUGGUGAAUCAGCGAAUUCUGCUGUAUAUCUC [A45G U49C U60A] | 0.17
32 | UAACAGGGGGCCACAGCAGAAGCGUUCACGUCGCAGCCCCUGUCGGACUCUGGUGAAUCUGCGCAUUCUGCUGUAUGUCUC [A45G U48C A64C A77G] | 0.18
33 | UAACAGGGGGCCACAGCAGAAGCGUUCACGUCGCAGCCCCUGUCGAAUCCUGGUGAAUCUGCGAAUUCUGCUGUAUACCUC [A45G G46A U49C U78C] | 0.18
34 | UAACAGGGGGCCACAGCAGAAGCGUUCACGUCGCAGCCCCUGUGAGAUUCUGGUGAAUCUGCGAAUUCUGCCGUAUAUCUA [C44G U72C C81A] | 1.11
